This note sets out measurements from article PMC5314374.

These are yes or no findings as the source states them, for the method shown. For some assays here: Binding seen in cells or lysates may run through a third protein. Some results given as binding are weak or reduced against the parent protein; the word gives no strength. Where a sequence is shown, tags or fusion partners need not be part of it.

The target of assay [1] is T1, Glycerol-3-phosphate dehydrogenase 1 (Gpd1), tagged with GFP or HA at the carboxy-terminus (S. cerevisiae) (UniProt Q00055).
T1 sequence: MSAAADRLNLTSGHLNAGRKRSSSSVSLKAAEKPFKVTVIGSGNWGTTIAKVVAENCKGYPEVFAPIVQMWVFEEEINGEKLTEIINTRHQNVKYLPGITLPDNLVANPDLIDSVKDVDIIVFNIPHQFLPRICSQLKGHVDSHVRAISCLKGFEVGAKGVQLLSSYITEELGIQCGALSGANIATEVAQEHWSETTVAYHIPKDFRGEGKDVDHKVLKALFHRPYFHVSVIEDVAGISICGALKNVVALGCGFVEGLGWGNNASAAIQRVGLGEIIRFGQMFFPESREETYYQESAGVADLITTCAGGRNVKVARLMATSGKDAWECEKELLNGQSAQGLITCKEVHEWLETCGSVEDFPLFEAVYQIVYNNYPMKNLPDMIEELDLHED
Briefly: co-IP; GFP-TRAP beads on lysates of S. cerevisiae gpd1 cells (Fig. 6A: pex13/gpd1 cells) co-expressing the two tagged proteins; cells grown on NaCl-containing medium (1 M in the legends, 0.8 M in the methods); lysis buffer 20 mM HEPES, 100 mM KAc, 5 mM MgAc pH 7.5; beads 1 h at 4 °C; immunoblot.

Assay [2] concerns the target T2, Pnc1 two-hybrid fusion (Gal4 transactivation domain and Gal4 DNA binding domain) (S. cerevisiae) (UniProt P53184).
T2 sequence: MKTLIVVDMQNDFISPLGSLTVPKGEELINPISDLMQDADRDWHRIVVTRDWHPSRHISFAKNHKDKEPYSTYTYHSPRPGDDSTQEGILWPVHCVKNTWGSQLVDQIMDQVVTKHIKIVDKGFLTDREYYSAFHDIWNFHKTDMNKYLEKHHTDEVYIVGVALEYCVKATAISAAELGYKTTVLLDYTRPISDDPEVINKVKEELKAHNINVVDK
The assay can be described thus: two-hybrid; Gal4 DNA-binding-domain fusions (bait) in PJ69-4α mated with Gal4 activation-domain fusions in PJ69-4a; growth on SD His- medium with 5 mM 3AT, for Pex21 interactions also lacking adenine; 30 °C.

Assay [3] concerns the target Gpd1E195R/R270E, tagged with GFP or HA (S. cerevisiae) (UniProt Q00055). Briefly: co-IP; GFP-TRAP beads on lysates of S. cerevisiae gpd1 cells (Fig. 6A: pex13/gpd1 cells) co-expressing the two tagged proteins; cells grown on NaCl-containing medium (1 M in the legends, 0.8 M in the methods); lysis buffer 20 mM HEPES, 100 mM KAc, 5 mM MgAc pH 7.5; beads 1 h at 4 °C; immunoblot.

Assay [4] addresses T3, Pex7 two-hybrid fusion (Gal4 transactivation domain and Gal4 DNA binding domain) (S. cerevisiae) (UniProt P39108).
T3 sequence: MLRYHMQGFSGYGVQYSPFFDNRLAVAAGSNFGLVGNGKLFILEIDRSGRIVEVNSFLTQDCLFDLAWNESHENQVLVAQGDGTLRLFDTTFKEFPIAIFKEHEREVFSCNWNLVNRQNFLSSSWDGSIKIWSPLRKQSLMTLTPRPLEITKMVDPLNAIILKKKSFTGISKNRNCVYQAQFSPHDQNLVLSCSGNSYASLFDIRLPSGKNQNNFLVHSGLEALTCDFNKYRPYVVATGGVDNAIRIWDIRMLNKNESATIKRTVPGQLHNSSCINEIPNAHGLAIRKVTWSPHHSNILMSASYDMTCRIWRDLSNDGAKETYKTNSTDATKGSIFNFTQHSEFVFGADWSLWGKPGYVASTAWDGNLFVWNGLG
The assay can be described thus: two-hybrid; Gal4 DNA-binding-domain fusions (bait) in PJ69-4α mated with Gal4 activation-domain fusions in PJ69-4a; growth on SD His- medium with 5 mM 3AT, for Pex21 interactions also lacking adenine; 30 °C.

The target of assay [5] is T4, Pex21 fused to the Gal4 DNA binding domain (S. cerevisiae) (UniProt P50091).
T4 sequence: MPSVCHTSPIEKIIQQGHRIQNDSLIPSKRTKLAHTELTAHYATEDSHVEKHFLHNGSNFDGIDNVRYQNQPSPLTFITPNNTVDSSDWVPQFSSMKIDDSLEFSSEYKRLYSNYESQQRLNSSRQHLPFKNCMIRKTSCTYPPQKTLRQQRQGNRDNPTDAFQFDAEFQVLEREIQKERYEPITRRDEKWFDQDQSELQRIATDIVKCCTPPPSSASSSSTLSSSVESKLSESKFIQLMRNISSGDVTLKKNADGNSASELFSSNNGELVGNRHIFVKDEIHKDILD
The assay is described as above.

B1: Glycerol-3-phosphate dehydrogenase 1 (Gpd1), tagged with GFP or HA at the carboxy-terminus (protein, UniProt Q00055 1-391)
chain: MSAAADRLNLTSGHLNAGRKRSSSSVSLKAAEKPFKVTVIGSGNWGTTIAKVVAENCKGYPEVFAPIVQMWVFEEEINGEKLTEIINTRHQNVKYLPGITLPDNLVANPDLIDSVKDVDIIVFNIPHQFLPRICSQLKGHVDSHVRAISCLKGFEVGAKGVQLLSSYITEELGIQCGALSGANIATEVAQEHWSETTVAYHIPKDFRGEGKDVDHKVLKALFHRPYFHVSVIEDVAGISICGALKNVVALGCGFVEGLGWGNNASAAIQRVGLGEIIRFGQMFFPESREETYYQESAGVADLITTCAGGRNVKVARLMATSGKDAWECEKELLNGQSAQGLITCKEVHEWLETCGSVEDFPLFEAVYQIVYNNYPMKNLPDMIEELDLHED
Consider B1, for which, in assay [1], the binding entry is reported as “binds”.

B2: Gpd1R270E-HA (protein, UniProt Q00055 1-391)
chain: MSAAADRLNLTSGHLNAGRKRSSSSVSLKAAEKPFKVTVIGSGNWGTTIAKVVAENCKGYPEVFAPIVQMWVFEEEINGEKLTEIINTRHQNVKYLPGITLPDNLVANPDLIDSVKDVDIIVFNIPHQFLPRICSQLKGHVDSHVRAISCLKGFEVGAKGVQLLSSYITEELGIQCGALSGANIATEVAQEHWSETTVAYHIPKDFRGEGKDVDHKVLKALFHRPYFHVSVIEDVAGISICGALKNVVALGCGFVEGLGWGNNASAAIQEVGLGEIIRFGQMFFPESREETYYQESAGVADLITTCAGGRNVKVARLMATSGKDAWECEKELLNGQSAQGLITCKEVHEWLETCGSVEDFPLFEAVYQIVYNNYPMKNLPDMIEELDLHED
Consider B2, for which, in assay [1], the binding result was “no binding”.

B3: Gpd1R270E fused to the Gal4 transactivation domain (protein, UniProt Q00055 1-391)
chain: MSAAADRLNLTSGHLNAGRKRSSSSVSLKAAEKPFKVTVIGSGNWGTTIAKVVAENCKGYPEVFAPIVQMWVFEEEINGEKLTEIINTRHQNVKYLPGITLPDNLVANPDLIDSVKDVDIIVFNIPHQFLPRICSQLKGHVDSHVRAISCLKGFEVGAKGVQLLSSYITEELGIQCGALSGANIATEVAQEHWSETTVAYHIPKDFRGEGKDVDHKVLKALFHRPYFHVSVIEDVAGISICGALKNVVALGCGFVEGLGWGNNASAAIQEVGLGEIIRFGQMFFPESREETYYQESAGVADLITTCAGGRNVKVARLMATSGKDAWECEKELLNGQSAQGLITCKEVHEWLETCGSVEDFPLFEAVYQIVYNNYPMKNLPDMIEELDLHED
In the case of B3, in assay [2], the binding result is given as “no binding”.

B4: Gpd1E195R/R270E, tagged with GFP or HA (protein, UniProt Q00055 1-391)
chain: MSAAADRLNLTSGHLNAGRKRSSSSVSLKAAEKPFKVTVIGSGNWGTTIAKVVAENCKGYPEVFAPIVQMWVFEEEINGEKLTEIINTRHQNVKYLPGITLPDNLVANPDLIDSVKDVDIIVFNIPHQFLPRICSQLKGHVDSHVRAISCLKGFEVGAKGVQLLSSYITEELGIQCGALSGANIATEVAQEHWSRTTVAYHIPKDFRGEGKDVDHKVLKALFHRPYFHVSVIEDVAGISICGALKNVVALGCGFVEGLGWGNNASAAIQEVGLGEIIRFGQMFFPESREETYYQESAGVADLITTCAGGRNVKVARLMATSGKDAWECEKELLNGQSAQGLITCKEVHEWLETCGSVEDFPLFEAVYQIVYNNYPMKNLPDMIEELDLHED
On to B4, for which the binding entry in assay [3] is “binds”; in assay [1], “no binding”.

B5: Gpd1 fused to the Gal4 transactivation domain (protein, UniProt Q00055 1-391)
chain: MSAAADRLNLTSGHLNAGRKRSSSSVSLKAAEKPFKVTVIGSGNWGTTIAKVVAENCKGYPEVFAPIVQMWVFEEEINGEKLTEIINTRHQNVKYLPGITLPDNLVANPDLIDSVKDVDIIVFNIPHQFLPRICSQLKGHVDSHVRAISCLKGFEVGAKGVQLLSSYITEELGIQCGALSGANIATEVAQEHWSETTVAYHIPKDFRGEGKDVDHKVLKALFHRPYFHVSVIEDVAGISICGALKNVVALGCGFVEGLGWGNNASAAIQRVGLGEIIRFGQMFFPESREETYYQESAGVADLITTCAGGRNVKVARLMATSGKDAWECEKELLNGQSAQGLITCKEVHEWLETCGSVEDFPLFEAVYQIVYNNYPMKNLPDMIEELDLHED
Take B5: the binding result in assay [2], in assay [4] and in assay [5] was “binds” throughout.

B6: Pnc1 two-hybrid fusion (Gal4 transactivation domain and Gal4 DNA binding domain) (protein, UniProt P53184 1-216)
chain: MKTLIVVDMQNDFISPLGSLTVPKGEELINPISDLMQDADRDWHRIVVTRDWHPSRHISFAKNHKDKEPYSTYTYHSPRPGDDSTQEGILWPVHCVKNTWGSQLVDQIMDQVVTKHIKIVDKGFLTDREYYSAFHDIWNFHKTDMNKYLEKHHTDEVYIVGVALEYCVKATAISAAELGYKTTVLLDYTRPISDDPEVINKVKEELKAHNINVVDK
Consider B6, for which the binding result in assay [2] is listed as “binds”; in assay [4] it was “no binding”; in assay [5], “no binding”.
